# In all, about 390,000 compounds went through this assay and about 4,700 (1.2%) were called active. Inconclusive results, whose numbers are uncertain, are shown with a selection of clear calls. The call rests on the fitted dose curve; in most records, active means well fitted inhibition curve with a large enough effect; inconclusive means small, poorly fitted or top-dose-only effect, or another doubt; inactive means no such curve, though single readings can be large or run the other way. A potency beside an inconclusive call is a rough fit, not a confirmed value.
# Target: DNA polymerase eta (Homo sapiens) (UniProt Q9Y253)
# Experiment: qHTS for Inhibitors of Polymerase Eta
# Details: recombinant Pol eta, fluorescent DNA replication assay; series mostly up to 114 µM
# In short: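 Pol eta (10 nM) was preincubated with compounds for 15 min at room temperature, after which fluorescent replication substrate (50 nM final) was added to start the reaction. Fluorescence was read kinetically at 0 and 10 min.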
# Potency means the concentration at half of the fitted maximal effect; tags describe the fitted curve by direction and shape.
# Sequence of UniProt Q9Y253 (Q9Y253 whole entry, looked up): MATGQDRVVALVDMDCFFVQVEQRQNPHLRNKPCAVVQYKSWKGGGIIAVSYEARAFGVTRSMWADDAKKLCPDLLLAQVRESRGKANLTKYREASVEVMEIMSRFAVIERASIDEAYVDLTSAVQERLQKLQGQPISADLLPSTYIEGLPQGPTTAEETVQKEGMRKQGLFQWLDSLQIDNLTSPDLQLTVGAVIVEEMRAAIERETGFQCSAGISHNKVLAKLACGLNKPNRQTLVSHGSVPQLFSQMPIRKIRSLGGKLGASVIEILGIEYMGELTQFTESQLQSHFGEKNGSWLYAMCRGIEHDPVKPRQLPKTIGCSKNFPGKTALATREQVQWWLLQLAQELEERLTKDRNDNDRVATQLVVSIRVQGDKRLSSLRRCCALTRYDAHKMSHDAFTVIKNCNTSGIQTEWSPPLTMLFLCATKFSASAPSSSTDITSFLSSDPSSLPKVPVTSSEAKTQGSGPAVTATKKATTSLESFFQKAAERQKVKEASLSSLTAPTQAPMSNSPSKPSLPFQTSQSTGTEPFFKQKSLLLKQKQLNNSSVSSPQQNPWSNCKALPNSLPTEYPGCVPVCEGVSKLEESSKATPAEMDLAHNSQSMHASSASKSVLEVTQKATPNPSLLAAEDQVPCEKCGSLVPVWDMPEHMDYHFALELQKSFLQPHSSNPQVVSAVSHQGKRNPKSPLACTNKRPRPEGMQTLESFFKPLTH
row,Structure (SMILES),Potency
1,CN(CC(=O)Nc1ccccc1C(F)(F)F)C(=O)c1cccc(-n2cccc2)c1,"inconclusive: 14.1 µM [inhibitor, partial curve, poor fit]"
2,COc1ccc(CCn2c(=S)[nH]c3cc(C(=O)NCc4ccco4)ccc3c2=O)cc1OC,"inconclusive: 12.6 µM [inhibitor, full curve, poor fit]"
3,CCOCCCNC1=C(Cl)C(=O)c2ccccc2C1=O,"inconclusive: 79.4 µM [inhibitor, partial curve]"
4,CC(=O)NC1C(=O)N(Cc2ccccc2)c2ccc(Br)cc21 (centres undefined),"inconclusive: 79.4 µM [inhibitor, partial curve, poor fit]"
5,O=S(=O)(c1cccc(-c2csc(N/N=C/c3ccco3)n2)c1)N1CCOCC1,"inconclusive: 79.4 µM [inhibitor, partial curve, poor fit]"
6,NS(=O)(=O)c1ccc(CCNC(=O)C2Cc3ccccc3CN2C(=O)c2ccco2)cc1 (centres undefined),"inconclusive: 25.1 µM [inhibitor, single point]"
7,CCC(C)/C=C/C1=CC2=C(Cl)C(=O)C3(C)OC(=O)C(C(=O)C(C)C(C)O)C3C2=CO1 (centres undefined),"inconclusive: 15.8 µM [inhibitor, full curve]"
8,Cc1c(Cc2ccccc2)c(=O)oc2cc(OCc3nn[nH]n3)ccc12,"inconclusive: 17.8 µM [inhibitor, full curve, poor fit]"
9,Cc1cn2c(N)c(C=C3C=C(Cl)C(=O)C(Cl)=C3)c(=O)nc2s1,"inconclusive: 31.6 µM [inhibitor, full curve, poor fit]"
10,COc1ccccc1CNC(=O)C(C)Sc1ccsc1[N+](=O)[O-] (centres undefined),active: 39.8 µM
11,Cc1cc([N+](=O)[O-])ccc1N1C(=O)c2ccc(C(=O)Nc3ccccc3C(=O)O)cc2C1=O,"inconclusive: 39.8 µM [inhibitor, partial curve, poor fit]"
12,CCOC(=O)C1=C(COC(=O)/C=C/c2cccc(Br)c2)NC(=O)NC1C (centres undefined),"inconclusive: 100 µM [inhibitor, partial curve, poor fit]"
13,Cn1c(NN)nc2c1c(=O)n(Cc1ccccc1)c(=O)n2C,"inconclusive: 44.7 µM [inhibitor, partial curve]"
14,COc1cc(NC(=O)Nc2cccc(Cl)c2)c(OC)cc1NC(=O)CN1CCCCC1,"inconclusive: 31.6 µM [inhibitor, partial curve, poor fit]"
15,CC(OC(=O)c1ccc([N+](=O)[O-])o1)C(=O)NC1CCCCC1C (centres undefined),"inconclusive: 79.4 µM [inhibitor, partial curve]"
16,Cc1ccc(-c2nnn3c2nc(NCCc2ccccc2)c2ccccc23)cc1,inactive
17,Cc1cc(C)cc(C(=O)OCC(=O)Nc2ncccn2)c1,"inconclusive: 25.1 µM [inhibitor, full curve, poor fit]"
18,COc1ccccc1OCCN1C(=O)S/C(=C\c2ccco2)C1=O,"inconclusive: 35.5 µM [inhibitor, partial curve, poor fit]"
19,CCc1cc2c(=O)n3c(nc2s1)-c1[nH]c2ccc(OC)cc2c1CC3,"inconclusive: 12.6 µM [inhibitor, partial curve, poor fit]"
20,CCN(c1ccccc1)S(=O)(=O)c1ccc(OC)c(NC(=O)CCc2nc3ccccc3c(=O)[nH]2)c1,"inconclusive: 0.282 µM [inhibitor, full curve, poor fit]"
21,CCc1ccc(CN(C)C(=O)CCc2nc3ccccc3n(-c3ccc(OC)cc3)c2=O)cc1,"inconclusive: 35.5 µM [inhibitor, full curve]"
22,Cc1cccc(NC(=O)CCc2nc3sc4c(c3c(=O)[nH]2)CCCC4)c1,"inconclusive: 39.8 µM [inhibitor, partial curve, poor fit]"

row,Structure (SMILES),Potency
1,O=C1c2cccc3c([N+](=O)[O-])ccc(c23)C(=O)N1c1ccccn1,"inconclusive: 15.8 µM [inhibitor, full curve, poor fit]"
2,COc1ccc(NC(=O)Nc2ccc([N+](=O)[O-])cc2)cn1,"inconclusive: 56.2 µM [inhibitor, partial curve, poor fit]"
3,O=C(NC1=NCCS1)c1ccccc1,"inconclusive: 100 µM [inhibitor, partial curve, poor fit]"
4,CCOC(=O)COc1ccc(/C=C(\C#N)c2nc3ccc(C)cc3[nH]2)cc1OC,active: 79.4 µM
5,Cc1cc2oc(=O)cc(CN3CCOCC3)c2c(C)c1Cl,"inconclusive: 89.1 µM [inhibitor, partial curve, poor fit]"
6,CCOc1ccc(NC(=O)CSc2nc(-c3cccc(Cl)c3)nc3c2Cc2c(CO)cnc(C)c2O3)cc1,inactive
7,O=C(CSc1nc2ccccc2[nH]1)N1CCN(c2ccc(F)cc2)CC1,"inconclusive: 31.6 µM [inhibitor, single point]"
8,Cc1cccc(NC(=O)c2cc3c(=O)n4ccccc4nc3s2)c1,active: 44.7 µM
9,CC(=O)c1ccc(S(=O)(=O)Nc2ccc(-c3ccc(N4CCCCC4)nn3)cc2)cc1,active: 79.4 µM
10,COc1ccc(CCNC(=O)c2csc3c2CCCCC3)c(OC)c1,inactive
11,COc1ccc(S(=O)(=O)N(C)CC(=O)Nc2ccc3c(c2)OCCO3)cc1OC,"inconclusive: 44.7 µM [inhibitor, single point]"
12,O=C(CCN1C(=O)S/C(=C/c2ccccc2)C1=O)Nc1ccc(O)c(C(=O)O)c1,"inconclusive: 56.2 µM [inhibitor, partial curve, poor fit]"
13,CC(=O)Nc1cccc(C(=O)/C=C/c2ccc(F)cc2)c1,"inconclusive: 79.4 µM [inhibitor, partial curve]"
14,O=C(O)c1cccc(N2C(=O)c3cc([N+](=O)[O-])cc4cc([N+](=O)[O-])cc(c34)C2=O)c1,active: 3.98 µM
15,O=c1c2cc([N+](=O)[O-])cc([N+](=O)[O-])c2[nH]n1-c1ccccc1,"inconclusive: 15.8 µM [inhibitor, full curve]"
16,O=C1C=C(Nc2ccccc2C(=O)O)c2ccccc2C1=O,active: 28.2 µM
17,COCOCCn1cc(CN2CCS(=O)(=O)N(Cc3ccc(-c4ccc(F)cc4)cc3)C(CC(C)C)C2=O)nn1 (centres undefined),"inconclusive: 22.4 µM [inhibitor, partial curve, poor fit]"
18,CN(C)S(=O)(=O)NCC1CCCN(Cc2ccc(-c3ccccc3)cc2)C1 (centres undefined),inactive
19,CCNc1ccc(Br)cc(C(=O)/C=C/c2ccc(Cl)cc2Cl)c1=O,active: 14.1 µM
20,CC(OC(=O)c1ccc(S(=O)(=O)NCc2ccco2)cc1)C(=O)Nc1ncc(Cl)cc1Cl (centres undefined),"inconclusive: 31.6 µM [inhibitor, partial curve, poor fit]"
21,S=c1[nH]nc(Cc2sc(-c3ccccc3)nc2-c2ccccc2)o1,inactive
22,Cc1ccc(-n2nc3c(N4CCC(C(=O)NCCc5ccco5)CC4)nnc(C)c3c2C)cc1,inactive

row,Structure (SMILES),Potency
1,Nc1cccc2c1C(=O)N(CC(=O)NC13CC4CC(CC(C4)C1)C3)C2=O,inactive
2,NC(=O)Cn1c(=O)n(CCC(=O)Nc2ccc(F)cc2)c(=O)c2sccc21,inactive
3,Cc1cccc(-c2nc(SCCCOc3cc(C)c(Cl)c(C)c3)n3[nH]c(=O)cc3n2)c1,inactive
4,COC(=O)c1c(NC(=O)C2c3ccccc3Oc3ccccc32)sc(C)c1C,"inconclusive: 79.4 µM [inhibitor, partial curve, poor fit]"
5,COc1ccc(Cl)cc1NC(=O)c1ccc(CN2C(=O)CCn3nc(C)cc32)cc1,inactive
6,O=C(O)C1CCCC2CN3CCc4c([nH]c5ccccc45)C3C(O)C21 (centres undefined),"inconclusive: 25.1 µM [inhibitor, partial curve, poor fit]"
7,COc1ccc(/C=C2\CCn3c2nc2cc(C(=O)O)ccc2c3=O)cc1O,active: 17.8 µM
8,O=c1oc2c3c4c(cc2s1)CCCN4CCC3,"inconclusive: 56.2 µM [inhibitor, partial curve, poor fit]"
9,O=c1c2ccccc2c(C=Nc2ccc(O)cc2)c(O)n1-c1nccs1,"inconclusive: 50.1 µM [inhibitor, partial curve, poor fit]"
10,Cc1cc(C(=O)CSc2nn3c(=O)c(C(C)(C)C)nnc3s2)c(C)n1C,"inconclusive: 79.4 µM [inhibitor, single point]"
11,CN(CCOc1ccccc1)C(=O)c1cc(-c2ccco2)nc2ccccc12,active: 25.1 µM
12,Cc1cc(Cl)ccc1OCC(=O)OC(C)C(=O)N(C)C (centres undefined),"inconclusive: 31.6 µM [inhibitor, partial curve, poor fit]"
13,Cc1cc(C(=O)CSc2nc(N)cc(=O)[nH]2)c(C)n1Cc1ccco1,"inconclusive: 56.2 µM [inhibitor, partial curve]"
14,O=C(CN1C(=O)COc2ccc(S(=O)(=O)N3CCOCC3)cc21)NCc1ccc(Cl)cc1,inactive
15,O=C(N/N=C/c1ccco1)c1cccc([N+](=O)[O-])c1,"inconclusive: 15.8 µM [inhibitor, single point]"
16,CN(C)C1(CNC(=O)C2CCN(S(=O)(=O)c3ccccc3C(F)(F)F)CC2)CCCCC1,"inconclusive: 3.55 µM [inhibitor, full curve, poor fit]"
17,Cc1cccc(C)c1-n1ncc(C(=O)NCCCN2CCCCC2)c1C1CCN(C(=O)OC(C)(C)C)CC1,inactive
18,COc1ccccc1NC(=O)CCc1nc2sc3c(c2c(=O)[nH]1)CCCC3,active: 50.1 µM
19,CC(=O)c1ccc(NC(=O)Nc2ccc3snnc3c2)cc1,"inconclusive: 89.1 µM [inhibitor, single point]"
20,CC1CCC/C(=N\Nc2ccc(Cl)c(C(=O)O)c2)C1 (centres undefined),active: 8.91 µM

# Reference: PubChem BioAssay AID588591 (National Center for Advancing Translational Sciences (NCATS), 2011)
